{
  "source": "the supplement of paper PMC11417369",
  "note": "Some of the results follow.",
  "data": [
    {"system": "PfHDP1 homeodomain (GST-tagged)", "assay": "gcPBM binding intensity (ln(normalized median fluorescence intensity)); higher = stronger DNA binding", "method_in_brief": "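Each value is the highest Masliner-normalised natural-log median intensity across replicate spots of either orientation of a probe. The probes were primer-extended double-stranded 36-bp intergenic genomic sequences on an Agilent 4 × 180k array, alongside negative controls, exposed for 1 h to GST-tagged P. falciparum DNA-binding domains expressed in E. coli. Bound protein was picked up with Alexa488 anti-GST antibody and scanned at 488 nm.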", "values": [
      {"sequence": "TCAAATGTATATAATTGTACTTATCCTTTTCATTTT [XGTACX_site4879]", "gcPBM binding intensity (ln)": 6.31},
      {"sequence": "TTTTAAGTTTTTGAATGTACGTAATTTGTAAATTCT [XGTACX_site2448]", "gcPBM binding intensity (ln)": 5.98},
      {"sequence": "AAAAAAAAAAAAAAAAAAAAAAAAAAAGATTATGAG [CACACA_negctrl_site1088]", "gcPBM binding intensity (ln)": 7.13},
      {"sequence": "TATAAAATACTGTATCGATGGGGGAGGGCGCAGGGG [TGCATGCA_negctrl_site250]", "gcPBM binding intensity (ln)": 7.4},
      {"sequence": "TACAATATTTTGAGACGTACATATATACATTTACAT [XGTACX_site5880]", "gcPBM binding intensity (ln)": 6.51},
      {"sequence": "AAATTAAAATAAAAATGTACATATAAAGACACAACT [XGTACX_site3132]", "gcPBM binding intensity (ln)": 7.3},
      {"sequence": "CTTACCAAAAGACACACACACACAAGATATATAAAT [CACACA_site6964]", "gcPBM binding intensity (ln)": 6.87},
      {"sequence": "TATATATATATACCAACACACATACAGATATATATA [CACACA_site5060]", "gcPBM binding intensity (ln)": 9.03},
      {"sequence": "TTTATATACAAAAATGCACACGAAAAGTAATATATA [CACACA_site9387]", "gcPBM binding intensity (ln)": 9.27},
      {"sequence": "TGTAAGTCGTTATAAGCACACACATAAATAAAAATA [CACACA_site8448]", "gcPBM binding intensity (ln)": 6.96},
      {"sequence": "TGAACTTACTTGGACATACACACATATATATATATA [CACACA_site2977]", "gcPBM binding intensity (ln)": 9.3},
      {"sequence": "AAATTTTAAATAGTATGTACGTATGAAATATATATG [XGTACX_site7511]", "gcPBM binding intensity (ln)": 7.24},
      {"sequence": "ACCCATTTAACAAAATGTACATTATTATAATTACTT [XGTACX_site7105]", "gcPBM binding intensity (ln)": 6.79},
      {"sequence": "ATTTAAATACAAAATTGTACTTTTCTATATTTAACA [XGTACX_site6146]", "gcPBM binding intensity (ln)": 6.39},
      {"sequence": "TTTGGAAAAAAATTATTTAAACGATATGAATTGATG [XGTACX_negctrl_site506]", "gcPBM binding intensity (ln)": 6.3},
      {"sequence": "AAAATTTTACAGAAGGTGCGTATATTTTCCTGCTTA [GTGCAC_site9643]", "gcPBM binding intensity (ln)": 6.5},
      {"sequence": "ATGTAGATAAAACGTGTGCACATGTTTTTTGTTATT", "gcPBM binding intensity (ln)": 10.4},
      {"sequence": "CACAGTGATATAAAAACACACATGAATTATAATTTC [CACACA_site1667]", "gcPBM binding intensity (ln)": 6.16},
      {"sequence": "TTTTGTTATGGTTTGATGCACTTATATATAAATATT [GTGCAC_site9705]", "gcPBM binding intensity (ln)": 7.96},
      {"sequence": "ATATATATATATATATGTACTTATTACCAATGTTAG [XGTACX_site1896]", "gcPBM binding intensity (ln)": 9.47},
      {"sequence": "AAGCCCATTATTAAATGTACAAAATTTTATAAACTA [XGTACX_site7800]", "gcPBM binding intensity (ln)": 6.62},
      {"sequence": "TATAGGTATTTATATACACACATATTCTTTTTACAC [CACACA_site6686]", "gcPBM binding intensity (ln)": 6.72},
      {"sequence": "GTATATATGTATATATGTACATATATATAATATATT [XGTACX_site56]", "gcPBM binding intensity (ln)": 6.57},
      {"sequence": "TAAAACATATATACAAGTACACAAAGGATATATATA [XGTACX_site3710]", "gcPBM binding intensity (ln)": 6.63},
      {"sequence": "CAGTGCCAAATTAGCACACACATATATACATGAATT [CACACA_site2814]", "gcPBM binding intensity (ln)": 7.16},
      {"sequence": "AAAAAATACCTCTATAGTACATATATATAATATTTA [XGTACX_site7222]", "gcPBM binding intensity (ln)": 6.18},
      {"sequence": "AAAAAAAATTTATTTGCATGCAAAAAAAAAAAAAAA [TGCATGCA_site67]", "gcPBM binding intensity (ln)": 6.79},
      {"sequence": "TAATTATGTATGAACTGTACAGGTTATTTTATTTTA [XGTACX_site5204]", "gcPBM binding intensity (ln)": 6.31},
      {"sequence": "TAAAATTTAAATTATACACACTTAAGTAACATCATC [CACACA_site4450]", "gcPBM binding intensity (ln)": 6.9},
      {"sequence": "CTACTTATAAATAGAACACACATAAGTGTATTTGTA [CACACA_site3759]", "gcPBM binding intensity (ln)": 6.33},
      {"sequence": "AATCATCTCATAAAAATTAATTAGTGTATGTCTTTT [TGCATGCA_negctrl_site416]", "gcPBM binding intensity (ln)": 6.19},
      {"sequence": "AAAACAATATACTGTAGTACTGATGATATATATATA [XGTACX_site7798]", "gcPBM binding intensity (ln)": 8.67},
      {"sequence": "TCTTAAATATATAAATTGAAAAATATAAAAGTAATA [CACACA_negctrl_site1558]", "gcPBM binding intensity (ln)": 6.17},
      {"sequence": "ACAATATAGATTAAAAGTACAAATAGTAAATTATAT [XGTACX_site3165]", "gcPBM binding intensity (ln)": 6.28},
      {"sequence": "ATAAAAAAAAATAGCACACATAAATATATTATATAT [CACACA_site767]", "gcPBM binding intensity (ln)": 7.08},
      {"sequence": "TCTTGTTAATATATTAAATATATCTATAAATATATA [XGTACX_negctrl_site486]", "gcPBM binding intensity (ln)": 6.55},
      {"sequence": "TATATACATACATATACACACATATATATATATATA [CACACA_site401]", "gcPBM binding intensity (ln)": 9.33},
      {"sequence": "TCATATTCCAAGTGTACACATAAATCCCTAATAACA [CACACA_site5167]", "gcPBM binding intensity (ln)": 7.19},
      {"sequence": "GTATAAAATATTGATTGTACTTTATTCATTTTTTTT [XGTACX_site2520]", "gcPBM binding intensity (ln)": 5.92},
      {"sequence": "TCATTGTTTAATATGTGTCCTCAAAATTTGTTATAT [XGTACX_site677]", "gcPBM binding intensity (ln)": 6.39},
      {"sequence": "ACAAATGGAACTCCTACAAAAAATTTCCATAATATT [XGTACX_negctrl_site132]", "gcPBM binding intensity (ln)": 6.03},
      {"sequence": "TAAACCTATTATACGGGTACTTATTTGATTCTTATA [XGTACX_site5292]", "gcPBM binding intensity (ln)": 6.15},
      {"sequence": "AAAAATAAAACAATTACACACATAACTTTATTTTTA [CACACA_site6563]", "gcPBM binding intensity (ln)": 6.69},
      {"sequence": "AAAAGCTTAAAAAATTGTACATAAATGAATAAATAT [XGTACX_site5201]", "gcPBM binding intensity (ln)": 6.21},
      {"sequence": "GAACTCATTTAATATTGTACATTCTGATATTTTTTA [XGTACX_site5995]", "gcPBM binding intensity (ln)": 6.47},
      {"sequence": "ACCACCATATAACATACATGCATCTTTTTTCCCTTC [TGCATGCA_site583]", "gcPBM binding intensity (ln)": 7.51},
      {"sequence": "AGACGTAATAATTGTTGTACATAAAAAAATAAGAAA [XGTACX_site7594]", "gcPBM binding intensity (ln)": 6.75},
      {"sequence": "AACAATTGTTAAAGGTGTACCATATGTATATAAGAA [XGTACX_site5723]", "gcPBM binding intensity (ln)": 7.39},
      {"sequence": "AAAAAATGTTAAAAAAGTACTTTCTTTATTTAATAA [XGTACX_site2908]", "gcPBM binding intensity (ln)": 6.02},
      {"sequence": "ATGATATTATAAAAAAGTACATATGTATATAATTAT [XGTACX_site7652]", "gcPBM binding intensity (ln)": 7.12},
      {"sequence": "AATATATGATAATTTTTTTTTTTTTTTTTTAAATAT [CACACA_negctrl_site452]", "gcPBM binding intensity (ln)": 5.87},
      {"sequence": "ATTTAATACAAATACACACACAAATATGTACCTATA [CACACA_site7718]", "gcPBM binding intensity (ln)": 7.02},
      {"sequence": "ACAATTCATTAGAATTGTACAAAAGGATGAAGCGAA [XGTACX_site5242]", "gcPBM binding intensity (ln)": 7.22},
      {"sequence": "ATTTTTTTTTTTTAATTTGATATTTGCGTTTATATA [CACACA_negctrl_site1305]", "gcPBM binding intensity (ln)": 6.36},
      {"sequence": "AATGCACAGCTCTTAGGCAAAAGTGGGTATTTACAC [GTGCAC_negctrl_site579]", "gcPBM binding intensity (ln)": 8.63},
      {"sequence": "TGTATAAAAAACTAATGTACAAATGACAAGATATCT [XGTACX_site4600]", "gcPBM binding intensity (ln)": 6.64}
    ]}
  ]
}
